# Reference: PubChem BioAssay AID526 (National Center for Advancing Translational Sciences (NCATS), 2006)
# Hit rate of the full screen: of about 67,000 compounds, fewer than 10 were called active. Inconclusive results, whose numbers are uncertain, are shown with a selection of clear calls. Calls follow the shape of the dose curve; as a rule, active = well fitted activation curve with a large enough effect (not every such curve was filed as active); inconclusive = small, poorly fitted or top-dose-only effect, or another doubt; inactive = no such curve, though single readings can be large or run the other way.
# Assay: Ubiquitin-GFP Assay
# Settings: Ubiquitin-GFP reporter cells, proteasome inhibition, GFP fluorescence; activation (GFP accumulation): at 45.9 µM (top of the series), untreated = 0%, 10 µM MG-132 = 100% unless noted
# How it was run: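 U2OS cells expressing ubiquitin(G76V)-GFP, seeded overnight in 0.5% FBS medium, then treated 4 hr at 37 C across 46 uM to 2.9 nM. GFP-positive cells counted by laser cytometry (488 ex/515 em); %activity scaled between basal and 10 uM MG-132.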
row,SMILES,activation (GFP accumulation)
1,COc1cccc(Nc2ncc3nc(-c4ccc(Cl)cc4)c(=O)n(CCC#N)c3n2)c1,inconclusive: 143% [activator]
2,CC1=C(C(=O)NCCN2CCOCC2)C2(CCC(C)CC2)OC1=O (stereo unspecified),inconclusive: 11.6% [activator]
3,CCN(CC)c1ccc(NC(=O)c2nc3nc(C)cc(C(F)F)n3n2)cc1,inactive: 0%
4,Cc1c2ccccc2c(CSC(=N)N)c2ccccc12,"inactive: 0.661% [at 9.17 µM, untreated = 0%, 10 µM MG-132 = 100%]"
5,Cc1nnc(SCc2ccc(F)cc2)s1,inconclusive: 6.56% [activator]
6,Nc1cccc(-n2nncc2-c2ccc(Cl)cc2)c1,inconclusive: -8.33% [activator]
7,CCNc1ncc2nc(-c3cccs3)c(=O)n(-c3ccccc3)c2n1,inconclusive: 34% [activator]
8,Cc1nc2cnc(Nc3ccccc3)nc2n(C[C@H]2CCCO2)c1=O,inactive: 7.85%
9,Cc1cc(=O)[nH]c(SCC(=O)Nc2nc3c(s2)CCCC3)n1,inconclusive: 8.96% [activator]
10,Cc1c(C)c2c(C)nn(-c3ccccc3)c2[nH]c1=O,"inconclusive: 0% [activator] [at 9.17 µM, untreated = 0%, 10 µM MG-132 = 100%]"
11,Nc1nc(SCC(=O)N2CCCc3ccccc32)[nH]c(=O)c1-c1ccccc1,inactive: 6.33%
12,C/C(=C\C(=O)c1ccncc1)Nc1ccccc1O,inconclusive: 30.6% [activator]
13,Cc1cc(C(=O)Cn2nnc(-c3ccc(Cl)cc3)n2)c(C)n1CC1CCCO1 (stereo unspecified),inconclusive: -16% [activator]
14,COCCSc1nnc(NC(=O)C2CCCO2)s1 (stereo unspecified),inconclusive: 36.7% [activator]
15,O=C(C1CCC(Cn2c(=S)[nH]c3ccccc3c2=O)CC1)N1CCOCC1 (stereo unspecified),inconclusive: -0.952% [activator]
16,COCCn1c(=O)c(CCc2ccccc2)nc2cnc(Nc3cccc(OC)c3)nc21,inconclusive: 37.1% [activator]
17,CC(C)(C)c1onc(OCP(=O)(O)O)c1C[C@@H](N)C(=O)O,inactive: 2.96%
18,Cc1ccc(C(C(=O)NC2CCCC2)N(Cc2ccco2)C(=O)CCC(=O)Nc2ccccn2)cc1 (stereo unspecified),inconclusive: 32.3% [activator]
19,O=C1CC(c2ccco2)Cc2nc(N3CCc4ccccc4C3)ncc21 (stereo unspecified),inconclusive: 33.3% [activator]
20,COc1ccc(NS(=O)(=O)c2cc(C)ccc2C)cc1,inactive: 1.98%
21,Cc1nc(NCc2ccccc2)c2nc(-c3ccccc3)n(CCCN3CCOCC3)c2n1,inactive: 0.26%
22,CC(NC(=O)COc1ccccc1)C(=O)NC1=NCCS1 (stereo unspecified),"inconclusive: 7.88% [activator] [at 9.17 µM, untreated = 0%, 10 µM MG-132 = 100%]"
23,CC1(C)CC(=O)C2=C(C1)N(CCN1CCOCC1)C1=C(C(=O)CC(C)(C)C1)C2c1cccc(Cl)c1,inconclusive: -5.26% [activator]

row,SMILES,activation (GFP accumulation)
1,O=C(Nc1cccnc1)c1ccccc1Oc1ccccc1,inactive: 10.7%
2,COc1cccc(-c2nc3cc(C)ccc3o2)c1,inconclusive: 34.8% [activator]
3,N=c1oc2c3c4c(cc2cc1C(=O)Nc1ccccc1)CCCN4CCC3,inconclusive: -2.86% [activator]
4,N#Cc1c(-c2ccco2)nc(SCc2ccc(F)cc2)[nH]c1=O,inconclusive: 31.6% [activator]
5,COc1ccc(Cl)cc1N(CC(=O)Nc1ccc2c(c1)OCO2)S(C)(=O)=O,inconclusive: 34.8% [activator]
6,Cc1nc(C)c(C(=O)Nc2ccc(C)c(F)c2)o1,inconclusive: 31.4% [activator]
7,CCCCn1c(NC(=O)c2ccccc2Cl)c(C#N)c2nc3ccccc3nc21,inactive: -5.95%
8,Cc1cc(NC(=O)CSc2ccc(Cl)cc2)no1,inconclusive: 14.5% [activator]
9,O=C(NC1CCCCC1)C(c1ccncc1)N(C(=O)Cn1nnc(-c2cccs2)n1)C1CCCC1 (stereo unspecified),inactive: 1.99%
10,CCCN(C(=O)c1ccccc1N)c1c(C)n(C)n(-c2ccccc2)c1=O,"inconclusive: 34.7% [activator] [at 9.17 µM, untreated = 0%, 10 µM MG-132 = 100%]"
11,Cc1cc(NC(NC(=O)c2ccco2)(C(F)(F)F)C(F)(F)F)no1,inconclusive: 12.9% [activator]
12,CCCc1ncc(C(O)c2cccc(OC)c2OC)n1C (stereo unspecified),inconclusive: 3.93% [activator]
13,COCCCN1C(=O)C(O)=C(C(=O)c2ccco2)C1c1cccc(Br)c1 (stereo unspecified),"inconclusive: 33.2% [activator] [at 9.17 µM, untreated = 0%, 10 µM MG-132 = 100%]"
14,O=C(c1ccccc1)c1ccc2n1CC[C@H]2C(=O)O,inactive
15,CCOC(=O)c1c(NC(=O)c2ccoc2C)sc2c1CCC2,inconclusive: 30.8% [activator]
16,O=C1CC(c2cccs2)Cc2nc(NCC3CCCO3)ncc21 (stereo unspecified),inactive: 0.714%
17,COc1ccc(CCNC(=O)CC2Nc3ccccc3NC2=O)cc1 (stereo unspecified),inactive: -1.1%
18,COCCCNC(=O)CC(NS(=O)(=O)c1ccc(C)cc1)c1ccco1 (stereo unspecified),inconclusive: 30.2% [activator]
19,O=C1CC(N2CCOCC2)C(=O)N1c1cccc(Cl)c1 (stereo unspecified),inconclusive: 2.45% [phenotype inactive]
20,CCOc1ccc(C(=O)NCc2cccnc2)cc1,"inconclusive: 35.8% [activator] [at 9.17 µM, untreated = 0%, 10 µM MG-132 = 100%]"
21,CC(C)C1N(S(=O)(=O)c2ccccc2)CCN1S(=O)(=O)c1ccccc1,inconclusive: 2.7% [activator]
22,COc1cccc(Nc2ncc3nc(-c4cn(C)c5ccccc45)c(=O)n(C[C@H]4CCCO4)c3n2)c1,inconclusive: 12% [activator]
23,CC(=O)NCCn1c(SCC(=O)NCCC2=CCCCC2)nc2ccccc2c1=O,inconclusive: 14.1% [activator]
